These results are taken from the RNAGym collection of RNA variant scans (doi:10.1093/nar/gkz1192).

Read counts are not given, so values of variants with three or more changes are uncertain.

Sequences and labels used below:
B1: CPEB3 Ribozyme (parent)
chain: UAACAGGGGGCCACAGCAGAAGCGUUCACGUCGCAGCCCCUGUCAGAUUCUGGUGAAUCUGCGAAUUCUGCUGUAUAUCUC

In this data set the parent is B1. The experiment in a line: self-cleavage, relative activity (ratio to wild type); higher = more cleavage; in vitro, sequencing. The essentials: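 Relative activity was defined as the cleaved/total read fraction for a variant divided by the same fraction for the unmutated ribozyme. CPEB3 self-cleaving ribozyme libraries were made by rounds of error-prone PCR, barcoded, and transcribed in vitro with T7 RNA polymerase for 5 hours at 37°C, and cleavage ran through transcription plus a 15 min DNase I step before EDTA. Illumina sequencing of template-switched reverse transcripts gave the reads, and DNA sequencing mapped the barcodes. Averages come from three batches, using variants with at least 5 reads.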
With UAACAGGGGGCCACAGCAGAAGCGUUCACGUCGCAGCCCCUGUCAGAUUCUGGUGAGUCUGCGAAUUCCGCAGUAUAUCUC [A57G U69C U72A], the self-cleavage came out at 0.44.

With UAACAGGGGGCCACAGCAGAAGCGUUCACGUCGCAGCCCCUGUCAGAUUCUGGUGAACCGGCGAAUUCUGCUGUAUAUCAC [U58C U60G U80A], the self-cleavage came to 0.17.

UAACAGGGGGCCACAGCAGAAGCGUUCACGUCGCAGCCCCUGUCAGAUUCUGGUGAACCAGCGAAUUCUGCCGUAUAUCUC [U58C U60A U72C]: the self-cleavage worked out at 0.39. For UAACAGGGGGCCACAGCAGAAGCGUUCACGUCGCAGCCCCUGUCAGAUUCUGGUGAGUCUGCGAAUACUGCAGUAUAUCUC [A57G U67A U72A] the value was 0.38; for UAACAGGGGGCCACAGCAGAAGCGUUCACGUCGCAGCCCCUGUCAGAUUCUGGUGAAUCCGCGAAUUCUGCCGUAUAUCCC [U60C U72C U80C], 0.83. The value for UAACAGGGGGCCACAGCAGAAGCGUUCACGUCGCAGCCCCUGUCAGAUUCUGGUGAAUCAGCGAAUUCUGCAGUAUAUCCC [U60A U72A U80C] was 0.96; that for UAACAGGGGGCCACAGCAGAAGCGUUCACGUCGCAGCCCCUGUCAGAUUCUGGUGAACCUGCGGGUUCCGCUGUAUAUCUC [U58C A64G A65G U69C] was 0.2; that for UAACAGGGGGCCACAGCAGAAGCGUUCACGUCGCAGCCCCUGUCAGAUUCUGGUGAGUCUGCGAAUUCUGCAGUAUACCUC [A57G U72A U78C] was 0.39. The value for UAACAGGGGGCCACAGCAGAAGCGUUCACGUCGCAGCCCCUGUCAGAUUCUGGUGAGUCUGCGAAUUCUGCUGUGUAUCCC [A57G A75G U80C] was 0.45. As to UAACAGGGGGCCACAGCAGAAGCGUUCACGUCGCAGCCCCUGUCAGAUUCUGGUGAAUCAGCGAAUACUGCUGUAUGUCUC [U60A U67A A77G], the self-cleavage came to 0.32. For UAACAGGGGGCCACAGCAGAAGCGUUCACGUCGCAGCCCCUGUCAGAUUCUGGUGAACCUGCGAAAACUGCUGUAUAUCUC [U58C U66A U67A] the value was 0.2; for UAACAGGGGGCCACAGCAGAAGCGUUCACGUCGCAGCCCCUGUCAGAUUCUGGUGAAACUGCGAAUCCUGCUGUGUAUCUC [U58A U67C A75G], 0.22; for UAACAGGGGGCCACAGCAGAAGCGUUCACGUCGCAGCCCCUGUCAGAUUCUGGUGAAUUCGUGAAUUCUGCUGUAUAUCCC [C59U U60C C62U U80C], 0.11. As to UAACAGGGGGCCACAGCAGAAGCGUUCACGUCGCAGCCCCUGUCAGAUUCUGGUGAAUCCGCGGAGUCUGCUGUAUAUCUC [U60C A64G U66G], the self-cleavage is 0.14.

Take UAACAGGGGGCCACAGCAGAAGCGUUCACGUCGCAGCCCCUGUCAGAUUCUGGUGAAUCGGCGAAUUCCGCUGUAUAUCCC [U60G U69C U80C]: the self-cleavage amounted to 0.29. For UAACAGGGGGCCACAGCAGAAGCGUUCACGUCGCAGCCCCUGUCAGAUUCUGGUGAAACUGCGAAUUCUGCCCUAUAUCUC [U58A U72C G73C] the value was 0.4; for UAACAGGGGGCCACAGCAGAAGCGUUCACGUCGCAGCCCCUGUCAGAUUCUGGUGAACCUGCGAAUUCCGCUGAAUAUCUC [U58C U69C U74A], 0.16. Regarding UAACAGGGGGCCACAGCAGAAGCGUUCACGUCGCAGCCCCUGUCAGAUUCUGGUGAGUCAGCGAGUUCUGCUGUAUAUCUC [A57G U60A A65G], the self-cleavage turned out to be 0.25.

Turning to UAACAGGGGGCCACAGCAGAAGCGUUCACGUCGCAGCCCCUGUCAGAUUCUGGUGAAUCAGCGGAUUCUGCUGUGUAUCUC [U60A A64G A75G], the self-cleavage turned out to be 0.26. Turning to UAACAGGGGGCCACAGCAGAAGCGUUCACGUCGCAGCCCCUGUCAGAUUCUGGUGAACCUGCGAACUCUGCUGUAUGUCUC [U58C U66C A77G], the self-cleavage is 0.14.

In the case of UAACAGGGGGCCACAGCAGAAGCGUUCACGUCGCAGCCCCUGUCAGAUUCUGGUGAACCUGCGAACUCUGCCGUAUAUCUC [U58C U66C U72C], the self-cleavage came out at 0.22. In the case of UAACAGGGGGCCACAGCAGAAGCGUUCACGUCGCAGCCCCUGUCAGAUUCUGGUGAACCAGCGAAUUCUGCUGCAUAUCUC [U58C U60A U74C], the self-cleavage was found to be 0.29. In the case of UAACAGGGGGCCACAGCAGAAGCGUUCACGUCGCAGCCCCUGUCAGAUUCUGGUGAAGCUGCGGAUUCUGCUGCAUAUCUC [U58G A64G U74C], the self-cleavage stood at 0.3. Turning to UAACAGGGGGCCACAGCAGAAGCGUUCACGUCGCAGCCCCUGUCAGAUUCUGGUGAAUCAGCGAACUCUGCUGUGUAUCAC [U60A U66C A75G U80A], the self-cleavage was determined as 0.15. The value for UAACAGGGGGCCACAGCAGAAGCGUUCACGUCGCAGCCCCUGUCAGAUUCUGGUGAGUCUGCGGAUUCUGCUGUAUUUCUC [A57G A64G A77U] was 0.98; that for UAACAGGGGGCCACAGCAGAAGCGUUCACGUCGCAGCCCCUGUCAGAUUCUGGUGAGUCUGCGGAUUCUGCCGUAUUUCUC [A57G A64G U72C A77U] was 0.86; that for UAACAGGGGGCCACAGCAGAAGCGUUCACGUCGCAGCCCCUGUCAGAUUCUGGUGAGUCUUCGAUUUCUGCUGUAUAUCUC [A57G G61U A65U] was 0.14. For UAACAGGGGGCCACAGCAGAAGCGUUCACGUCGCAGCCCCUGUCAGAUUCUGGUGAAUCAGCGAGUUCUGCUGUAUACCUC [U60A A65G U78C] the value was 0.24; for UAACAGGGGGCCACAGCAGAAGCGUUCACGUCGCAGCCCCUGUCAGAUUCUGGUGAGUCUGCGAGUUCUGGUGUAUAUCCC [A57G A65G C71G U80C], 0.37.

As for UAACAGGGGGCCACAGCAGAAGCGUUCACGUCGCAGCCCCUGUCAGAUUCUGGUGAACCUGCGAGUUCUGCUGUAUAACUC [U58C A65G U78A], the self-cleavage was determined as 0.16. The value for UAACAGGGGGCCACAGCAGAAGCGUUCACGUCGCAGCCCCUGUCAGAUUCUGGUGAAUCCGCGUAUACUGCUGUAUAUCUC [U60C A64U U67A] was 0.2; that for UAACAGGGGGCCACAGCAGAAGCGUUCACGUCGCAGCCCCUGUCAGAUUCUGGUGAGUCUGCGAAUCCUGCUGUAAAUCUC [A57G U67C U76A] was 0.21. Take UAACAGGGGGCCACAGCAGAAGCGUUCACGUCGCAGCCCCUGUCAGAUUCUGGUGAACCUGUGAUUUCUGCUGUAUACCUC [U58C C62U A65U U78C]: the self-cleavage came out at 0.13. For UAACAGGGGGCCACAGCAGAAGCGUUCACGUCGCAGCCCCUGUCAGAUUCUGGUGAGAAUGCGAAUUCUGCUGUAUGUCUC [A57G U58A C59A A77G] the value was 0.17.
